Measured values from article PMC4336329 (PLoS ONE, 2015).
The whole screen tested about 310,000 compounds, of which about 14,000 (4.5%) showed an effect of 50% or more. Effects have a minus sign here. Some of the results follow.

Target: human ether-à-go-go-related gene (hERG) potassium channel (human, UniProt Q12809)
Assay: primary screen, population patch clamp on CHO cells stably expressing hERG
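Note: peak tail current of the secondary pulse compared with the same well before compound.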

human ether-à-go-go-related gene (hERG) potassium channel, sequence (Q12809 whole entry, looked up): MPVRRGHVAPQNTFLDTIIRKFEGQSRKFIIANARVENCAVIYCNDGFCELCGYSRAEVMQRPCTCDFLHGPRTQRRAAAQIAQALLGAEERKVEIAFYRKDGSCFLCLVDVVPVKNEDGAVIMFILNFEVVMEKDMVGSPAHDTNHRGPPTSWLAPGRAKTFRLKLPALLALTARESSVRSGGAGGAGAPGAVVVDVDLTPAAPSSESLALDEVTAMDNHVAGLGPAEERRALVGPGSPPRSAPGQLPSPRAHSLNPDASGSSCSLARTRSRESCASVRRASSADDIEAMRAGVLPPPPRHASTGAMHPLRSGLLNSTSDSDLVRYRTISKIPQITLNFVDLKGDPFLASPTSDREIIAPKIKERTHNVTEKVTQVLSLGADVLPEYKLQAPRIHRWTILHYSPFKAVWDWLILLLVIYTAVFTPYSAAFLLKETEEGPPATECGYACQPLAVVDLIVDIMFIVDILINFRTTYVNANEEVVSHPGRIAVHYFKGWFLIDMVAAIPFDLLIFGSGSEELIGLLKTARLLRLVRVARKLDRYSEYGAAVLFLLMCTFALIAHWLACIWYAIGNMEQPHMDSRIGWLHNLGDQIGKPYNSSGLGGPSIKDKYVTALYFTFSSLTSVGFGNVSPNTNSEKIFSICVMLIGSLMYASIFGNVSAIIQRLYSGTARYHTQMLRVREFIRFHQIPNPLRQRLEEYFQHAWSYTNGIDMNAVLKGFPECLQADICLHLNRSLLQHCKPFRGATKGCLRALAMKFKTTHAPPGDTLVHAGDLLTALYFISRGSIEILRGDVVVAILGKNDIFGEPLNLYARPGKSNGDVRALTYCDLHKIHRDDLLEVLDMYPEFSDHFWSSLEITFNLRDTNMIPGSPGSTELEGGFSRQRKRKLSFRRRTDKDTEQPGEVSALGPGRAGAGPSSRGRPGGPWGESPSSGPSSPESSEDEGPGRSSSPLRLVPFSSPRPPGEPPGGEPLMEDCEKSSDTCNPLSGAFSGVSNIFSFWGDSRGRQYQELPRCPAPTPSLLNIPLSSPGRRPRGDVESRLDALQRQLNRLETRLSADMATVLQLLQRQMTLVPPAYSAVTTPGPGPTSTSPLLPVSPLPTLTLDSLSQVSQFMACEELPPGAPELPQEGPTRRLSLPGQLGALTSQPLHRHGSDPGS

| Structure (SMILES) | hERG current change (%, negative = inhibition) at 10uM [%] |
| --- | --- |
| Nc1nc(-c2ccc(S(=O)(=O)N3CCCCC3)cc2)cs1 | -2.15 |
| CCSC1=C(C#N)C(c2ccc3c(c2)OCO3)C2=C(CCCC2=O)N1 (centres unmarked) | -23.4 |
| O=C(O)c1sccc1S(=O)(=O)N1CCOCC1 | 18.7 |
| Cc1cccc(N(C)C(=O)c2cc3c(=O)[nH]c4ccc(C)cc4c3s2)c1 | 6.58 |
| CS(=O)(=O)N1CCn2c1nc1ccccc12 | 4.59 |
| Cc1ccc(CNS(=O)(=O)c2ccc(Br)s2)cc1 | 15.6 |
| O=C(COc1ccc(-c2nnco2)cc1)NC1CCCc2ccccc21 (centres unmarked) | -19.2 |
| CC(C)(C)c1cnnn1-c1cccc([N+](=O)[O-])c1 | 10.6 |
| CN(Cc1ccc(Cl)cc1)C(=O)CNC(=O)C12CC3CC(CC(C3)C1)C2 | -21 |
| CN(CC(=O)Nc1ccc(N2CCOCC2)cc1)C(=O)C12CC3CC(CC(C3)C1)C2 | 0.894 |
| COC(=O)c1ccc(N2C(=O)CC(N3CCOCC3)C2=O)cc1 (centres unmarked) | -21.5 |
| FC(F)(F)c1ccc(/C=N/N2CCN(Cc3ccccc3)CC2)cc1 | -4.09 |
| O=C(CN(Cc1ccccc1)C(=O)CNS(=O)(=O)c1ccc(F)cc1)NCc1ccco1 | -16.2 |
| CC(=O)c1ccc(OCCCOc2cccc3cccnc23)cc1 | -4.98 |
| O=C(c1ccc(Sc2ccc(F)cc2)c([N+](=O)[O-])c1)N1CCOCC1 | -18.5 |
| Cc1ccc(OCc2cnc(Cl)s2)c(C)c1 | 16.9 |
| CCCCCOc1ccc(NC(=O)c2cc(SC)ccc2Cl)cc1 | 4.24 |
| Cc1cc(NC(=O)CN2CC(C)OC(C)C2)n(-c2nc3ccccc3s2)n1 (centres unmarked) | 16.1 |
| COc1ccc(OC(C)C(=O)N2CCN(c3ccccn3)CC2)cc1 (centres unmarked) | -14.5 |
| COc1cc(C(=O)N2CCN(Cc3ccccc3C(F)(F)F)CC2)cc(OC)c1OC | -5.31 |
| CCCCCOc1ccc(C(=O)OCC(=O)Nc2cc(C)c(C)cc2[N+](=O)[O-])cc1 | 12.7 |
| Cc1onc(-c2ccccc2Cl)c1C(=O)Nc1sc2c(c1C(N)=O)CCC(C)C2 (centres unmarked) | 18.2 |
| Cc1ccc(C(=O)NCCCc2ccccc2)c(Cl)c1 | -0.45 |
| C=CCNC(=O)N1CCC(CO)(Cc2ccc(Cl)cc2)CC1 | -10.3 |
| CCCCc1n[nH]c2c1C(=O)CC(C)(C)C2 | 3.05 |
| CC(C)CC(=O)NS(=O)(=O)c1ccc(N)cc1 | 10.1 |
